According to paper PMC7819943, “Rice protein-binding microarrays: a tool to detect cis-acting elements near promoter regions in rice”:
Some of the results follow.

Target: T1, OsWOX13 (Oryza sativa, UniProt Q5QMM3 1-267)
T1 sequence: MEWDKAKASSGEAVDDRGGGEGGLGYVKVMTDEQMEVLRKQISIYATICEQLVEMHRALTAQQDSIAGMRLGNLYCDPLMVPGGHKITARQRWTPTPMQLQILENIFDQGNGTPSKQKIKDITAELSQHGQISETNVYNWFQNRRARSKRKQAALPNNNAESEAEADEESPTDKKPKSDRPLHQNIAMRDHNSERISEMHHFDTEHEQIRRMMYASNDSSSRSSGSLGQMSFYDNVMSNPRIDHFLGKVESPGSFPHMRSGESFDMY
Assay: protein-binding microarray (RPBM); PBS, 2% BSA, 51.3 ng/ul salmon testes DNA, 50 uM zinc acetate, 200 nM TF, 25 C, 1 h; high values mean tight binding
Conditions: protein: recombinant; tags: N-terminal polyhistidine and DsRed monomer fusion (pET32a); label: CyDye5-dUTP incorporated in the synthesized complementary strand; 3' TTTTT single-stranded linker to array surface; dsDNA, one strand shown
Summary of the method: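 The binding signal is fluorescence intensity per array feature (arbitrary units). Readings came from an Axon 4000B scanner after a washed, 2% BSA-blocked, double-stranded custom Agilent array had been incubated for 1 h at 25 °C with 200 nM protein and 50 µM zinc acetate. The protein was a Ni–NTA-purified transcription factor fused N-terminally to polyhistidine and DsRed, expressed in E. coli BL21-CodonPlus.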

Row | Sequence | binding signal
1 | CTAGGATTAGTAACTGTATAGAACCACACCATCTGTCCAACGGAGTCACCTAGTGCAG | 3420 fluorescence intensity (a.u.)
2 | TGTTCTCAATCAGTATTTGATCTTTGCGTTTAGTCGTCTCCGGAGTCACCTAGTGCAG | 14200 fluorescence intensity (a.u.)
3 | ATCTTCATTAATTAATTTATATAAATACCTACGTTAATGGCGGAGTCACCTAGTGCAG | 28200 fluorescence intensity (a.u.)
4 | AGTAGGAAACCAATCAGTCCCAGAAGAATTTTACACATTCCGGAGTCACCTAGTGCAG | 3230 fluorescence intensity (a.u.)
5 | CCCAGAAGTTAACATCAATTTATTCAGTCCTATGTTCTCGCGGAGTCACCTAGTGCAG | 6860 fluorescence intensity (a.u.)
6 | GATTGATTTAGTTTGGTGATGCTAATGTAATGTTAATGTTCGGAGTCACCTAGTGCAG | 21400 fluorescence intensity (a.u.)
7 | ACATATGTAATTTATAAACTTACAATATAAATACATGCTGCGGAGTCACCTAGTGCAG | 17000 fluorescence intensity (a.u.)
8 | TAATATATCAAGCATAAATTTATGTTATCATTTTCTTTCGCGGAGTCACCTAGTGCAG | 3920 fluorescence intensity (a.u.)
9 | CTAATTAATCTGTCATTAGCTTATGTGGGTTACTATAGTACGGAGTCACCTAGTGCAG | 15300 fluorescence intensity (a.u.)
10 | ACTTATATTCTTTAACTTATGATTGGAGGTATATACTATACGGAGTCACCTAGTGCAG | 5760 fluorescence intensity (a.u.)
11 | ATCTAAATAATTGAAGTAGAAAAGTTTGAAAATCAGTTGTCGGAGTCACCTAGTGCAG | 9570 fluorescence intensity (a.u.)
12 | CCCCATCTGTATTTTAAATTTATATCCGCCACTGATTGTACGGAGTCACCTAGTGCAG | 4240 fluorescence intensity (a.u.)
13 | ATCAAGATTTGATGACTCAGTCTTTAGAAGTTGCTTATCACGGAGTCACCTAGTGCAG | 4350 fluorescence intensity (a.u.)
14 | CTAAGATCATGATTTTAAGATTTAACTCCAATACGCAAAACGGAGTCACCTAGTGCAG | 3650 fluorescence intensity (a.u.)
15 | GGTTCAAATTAACTTTTCAATCTTGGCTGTGTTTGGATCCCGGAGTCACCTAGTGCAG | 21400 fluorescence intensity (a.u.)
16 | GAACATGATTGTGAATGAAAATGAGCTGCTAATAGGTCACCGGAGTCACCTAGTGCAG | 21300 fluorescence intensity (a.u.)
17 | TATAGACTGATAAGATATATACAAGCAGCTTTGCTTTCCACGGAGTCACCTAGTGCAG | 5540 fluorescence intensity (a.u.)
18 | GTAAAATGATGGAAAATGTAACGGTAGGGGCATGGAAGGGCGGAGTCACCTAGTGCAG | 6210 fluorescence intensity (a.u.)
19 | GGTTGACTGCTCTCTGAAATTAATTTTATTCGTTTAGTTACGGAGTCACCTAGTGCAG | 30500 fluorescence intensity (a.u.)
20 | TTAATTAGAGTTCAAATGAGAGTAAGAAATGACAGATAGGCGGAGTCACCTAGTGCAG | 6020 fluorescence intensity (a.u.)
21 | CTAAATTTGTAATTGTAATGTACTACTTTAATCCTTCGTACGGAGTCACCTAGTGCAG | 53100 fluorescence intensity (a.u.)

Row | Sequence | binding signal
22 | ATACTTAATTTTGGGCTTTCCTATTTTCCGGCCATTTTACCGGAGTCACCTAGTGCAG | 7030 fluorescence intensity (a.u.)
23 | GTTAATTACTTTTATGCTGCAAATGCACAATGAAGTAAAGCGGAGTCACCTAGTGCAG | 20600 fluorescence intensity (a.u.)
24 | GCTTAATCGAATCAGCCATCTGATGGGCTTCGGCTGAAACCGGAGTCACCTAGTGCAG | 4270 fluorescence intensity (a.u.)
25 | ATTATTGTTTTGCAATTTATAATAATCATCCATATGCATGCGGAGTCACCTAGTGCAG | 4650 fluorescence intensity (a.u.)
26 | CTGATGACGACGGTTAATTGTATAATTTCACCGCGCCTAACGGAGTCACCTAGTGCAG | 48900 fluorescence intensity (a.u.)
27 | AGATGATTTCTAGCGGTGGAAGGGTAGAATTGTAACTTCGCGGAGTCACCTAGTGCAG | 4290 fluorescence intensity (a.u.)
28 | AGACTCTGACATGCAATCACCGAGCAAAGCCCAATATATACGGAGTCACCTAGTGCAG | 4640 fluorescence intensity (a.u.)
29 | GAGTCTGTGATTAATGGGCAAATCATACTCACTCCATCCACGGAGTCACCTAGTGCAG | 20600 fluorescence intensity (a.u.)
30 | ATAACTACAAATTAATCCATGATTAGTTGACTGTAATCAACGGAGTCACCTAGTGCAG | 26900 fluorescence intensity (a.u.)
31 | ATTTAATTAGAATTTAATATGTTTTAATTCAATTTTCTCTCGGAGTCACCTAGTGCAG | 21400 fluorescence intensity (a.u.)
32 | TCTGTCACATCGTTCCAATTTCAATCAAACTTTCAATTTTCGGAGTCACCTAGTGCAG | 4060 fluorescence intensity (a.u.)
33 | GACCCTAATTCGTCGGAGATTGGGTTGTCGCCGGCACCAGCGGAGTCACCTAGTGCAG | 3820 fluorescence intensity (a.u.)
34 | ACCTCAATTATAGCACTGCCTCTCCTCCAAGCTAGCAGCTCGGAGTCACCTAGTGCAG | 3440 fluorescence intensity (a.u.)
35 | TTGTGACTTGACTTTGCCAATCTTAGTCTATTTTCTCGAGCGGAGTCACCTAGTGCAG | 5270 fluorescence intensity (a.u.)
36 | GGCACTAATAAAATGCTAAATTAACTTCACATCGACAACACGGAGTCACCTAGTGCAG | 5970 fluorescence intensity (a.u.)
37 | CGACCACTAATTAAGGGAGTCAATGTGAACTTATTCGTCCCGGAGTCACCTAGTGCAG | 13100 fluorescence intensity (a.u.)
38 | GGTAATTGAGAATGAATTCCTCCTTTACTTTGCCTAAACACGGAGTCACCTAGTGCAG | 24300 fluorescence intensity (a.u.)
39 | CATATACAAATTATGTAAAACATACGAAGCATCCTTTTGGCGGAGTCACCTAGTGCAG | 6740 fluorescence intensity (a.u.)
40 | GAGATAATTTGATCTAAATATTTTGGTAAGCGTAGAAAGGCGGAGTCACCTAGTGCAG | 25700 fluorescence intensity (a.u.)
41 | TGGAGTGACTGATCTTCTGTTTGTCAGTAATCAGTCAGTTCGGAGTCACCTAGTGCAG | 5170 fluorescence intensity (a.u.)
42 | CAGTCTACAAATTTAGGCCAATTTCAAAATTTGTGTGGAGCGGAGTCACCTAGTGCAG | 4250 fluorescence intensity (a.u.)
